The source gives no read counts; variants with many changes may rest on few reads.

Sequences and labels used below:
B1: CPEB3 Ribozyme (parent)
chain: UAACAGGGGGCCACAGCAGAAGCGUUCACGUCGCAGCCCCUGUCAGAUUCUGGUGAAUCUGCGAAUUCUGCUGUAUAUCUC

In this data set the parent is B1. The data set is described as follows: self-cleavage, relative activity (ratio to wild type); higher = more cleavage; in vitro, sequencing. Put shortly:
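After error-prone PCR and barcoding, CPEB3 ribozyme mutant libraries were transcribed with T7 RNA polymerase at 37°C for 5 hours, then given 15 min with DNase I before an EDTA stop, and they cleaved during both steps. Reverse transcription with template switching preceded Illumina sequencing. Relative activity divides a variant's cleaved/total read fraction by the unmutated ribozyme's. At least 5 reads were required per variant, and three batches were averaged.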
Turning to UAACUGGGGGCCACUGCAGAAGCGUACACGUCGCAGCCCCUGUCAGAUUCUGGUGAAUCUGCGAAUUCAGCUGUAUAUCUC [A5U A15U U26A U69A], the self-cleavage worked out at 0.33. The value for UAACUGGGGGCCACUGCAGAAGCGUUCACGUCGCAGCCCCUGUCGGAUUCUGGUGAAUCUGCGAAUUGUGCUGUAUAUCCC [A5U A15U A45G C68G U80C] was 0.22; that for UAACUGGGGGCCACAGCGGAAGCGUUCACGUCGCAGCGCCUGUCAGAUUCUGGCGAAUCUGCGAAUUCUGCUGUAUAUCUC [A5U A18G C38G U54C] was 0.09; that for UAACUGGGGGCCACGGCAGAAGCGUUCACGUCGCAGCCCCCGACAGAUUCUGGUGAAUCUGCGAACUCUGCUGUAUAUCUC [A5U A15G U41C U43A U66C] was 0.26. In the case of UAACUGGGGGCCACGGCAUAAGCGUUCACGUCGCAGCCCCUGUCAGAUUCUGGCGAAUCUGCGAAUUCUGCUGUAUAUCUC [A5U A15G G19U U54C], the self-cleavage stood at 0.22. In the case of UAACUGGGGGCCACGGCAGAAGCGUUCACGUCGCAGCCCCUGUCGGAUUCUGGUGAAUCCGCGAAUUCAGCUGUUUAUCUC [A5U A15G A45G U60C U69A A75U], the self-cleavage is 0.31. Take UAACUGGGGGCCACUGCAGAAGCGUUCACGUCGCAGCCCCUGCCAGAUUCUGGAGAAUCUGCGAAUUCUGCUGUAUCUCUC [A5U A15U U43C U54A A77C]: the self-cleavage is 0.52. The result for UAACUGGGGGCCACUGCAGAAGCGUUCACGUCGCAGCCCCUGUCAGAUUCUGGUGGAUCUGCGAUUUCUGCCGUAUAUCUC [A5U A15U A56G A65U U72C] reads 0.12; that for UAACUGGGGGCCACAGCUGAAGCGCUCACGUCGCAGCCCCUGUCAGAUUCUGCUGAAUCUGCGAAUUCUGCAGUAUAUCUC [A5U A18U U25C G53C U72A], 0.24; that for UAACUGGGGGCCACAGCAGGGGCGUUCACGUCGUAGCCCCUGUUAGGUUCUGGUGAAUCUGCGAAUUCUGCUGUAUAUCUC [A5U A20G A21G C34U C44U A47G], 0.35. On to UAACUGGGGGCCACAGCGGAAGCGUUCACGUCGCAGCCCCUGUCAGAUUCUGGUGAGUCUGCGAAUUCUGCUGUAUAUCUC [A5U A18G A57G], for which the self-cleavage came out at 0.58. The value for UAACUGGGGGCCACUGCAGAAGCGUUCACGUCGCAGCCCCUGUCAGAUUCUGGUGAAGCUGCGAAUUCUGCUGUAUAUCUC [A5U A15U U58G] was 0.49. The result for UAACUGGGGGCCACGGCAGAAGCGUUCACGUCGCAGCCCCUGUCAGAUUCUGGUGAAUCUGCGAAUUCUGCUCUAUAUCUC [A5U A15G G73C] reads 1.23; that for UAACUGGGGGCCACGGCAGAAGCGUUCACGUCGAAGCCCCUGUCGGAUUCUGGUGAAUCCGCGAAUUCUGCUGUAUAUCUC [A5U A15G C34A A45G U60C], 0.59; that for UAACUGGGGGCCACAGCAGGAGCGUACACGCCGCAGCCCCUGUCAGAUUCUGGUGAAUCUGCGAACUCUGCUGUAUAUCUC [A5U A20G U26A U31C U66C], 0.3. Consider UAACUGGGGGCCACAGCUGACGCGUUCACGUCGCAGCCCCUGUCAGAUUCUAGUGAAUCUGCGAAUUCCGCUGUAUAUCUC [A5U A18U A21C G52A U69C], for which the self-cleavage was determined as 0.05. The value for UAACUGGGGGCCACAGCAGGAGCGUUCACGCCGCAGCCCCUGUCAGAUUCUGGUGAAUCUGCGAAUUCUGCUGUAUAUCUC [A5U A20G U31C] was 0.65; that for UAACUGGGGGCCACAGCAGGAGCCUUCACGUCACAGCCCCUGUCAGAUUCUGGUGAAUCUGCGAAUUCUGCUGUAUUUCUC [A5U A20G G24C G33A A77U] was 0.27; that for UAACUGGGGGCCACUGCAGGAGCGCUCACGUCGCAGCCCCUGUCUGAUUCUGGUGUAUCUGCGAAUUCUGCUGUAUAUCUC [A5U A15U A20G U25C A45U A56U] was 0.28. The value for UAACUGGGGGCCACAGCCGAAGCGCUCACGUCGCAGCCCCUGUCAGAUUCUAGUGAAUCUGCGGAUUCUGCUGUAUAUCCC [A5U A18C U25C G52A A64G U80C] was 0.07; that for UAACUGGGGGCCACAGCGGACGCGUUCACGUCGCAGCCCCUGUCAGAUUCUGGUGAAUAUGCGAAUUCUGCUGUAUACCUC [A5U A18G A21C C59A U78C] was 0.07; that for UAACUGGGGGCCACAGCUGAAGCGUUCACGUCCCAGCCCCUGUCAGAUUCUGGUGAAUCUGCGAAUUCUGCCGUAUAUCUC [A5U A18U G33C U72C] was 0.11. Consider UAACUGGGGGCCACAGCAGGAGCGUUCACGUCGCGGCCCCUGUCAGAUUCUGGUGAAUCUGCGAAUUCUGCUGUAUAUCUC [A5U A20G A35G], for which the self-cleavage was 1.23.

In the case of UAACUGGGGGCCACUGCAGAAGCGUCCACGUCGCAGCACCUGUCGGAUUCUGGCGUAUCUGCGAAUUCUGCUGUAUAUCUC [A5U A15U U26C C38A A45G U54C A56U], the self-cleavage was found to be 0.05. As for UAACUGGGGGCCACAGCAGGAGCGUUCACGUCGCAGCCCCUGUCAGAUUCUGGGGAAACUGCGAAUUCUGCUGUAUAUCUC [A5U A20G U54G U58A], the self-cleavage turned out to be 0.13. The value for UAACUGGGGGCCACAGCAGGAGCGUUCACGUCGCAGCCCCUGUCAGAUUCUGGUGAAUCUGCGAAUCCUGCUGUAUAUCUC [A5U A20G U67C] was 0.78; that for UAACUGGGGGCCACAGCAGGAGCGUUCACGUCGCAGCCCCUGUCAGAUUCUGGUGAAUCCGCGAAUCCUGCUGUAAAUCUC [A5U A20G U60C U67C U76A] was 0.57.

As for UAACUGGGGGCCACAGCUGAAGCGUUCACGUCGCAGCCCCUGUCAGAUUCUGGUGAAUCUGCGAAUUCUGCUGUAUACCUC [A5U A18U U78C], the self-cleavage turned out to be 0.48. The value for UAACUGGGGGCCACAGCAGGAGCGUUCACGUCGCAGCCCCUGUCAGAUUCCGGUGAAUCUGCGAAUUCUGCUGUAUAUCUC [A5U A20G U51C] was 0.9. Turning to UAACUGGGGGCCACAGCGGAAGCGUACACGUCGCAGCCCCAGACAGGUUCUGGUGAAUCUGCGAAUUCUGCUGUAUAUCUC [A5U A18G U26A U41A U43A A47G], the self-cleavage came to 0.11.

With UAACUGGGGGCCACUGCAGAAGCGUUCACGUCGCAGCACCCGUCAGAUUCUGGUGAACCUGCGAUUUCUGCUGUAUAUCAC [A5U A15U C38A U41C U58C A65U U80A], the self-cleavage was 0.07. For UAACUGGGGGCCACAGCUGAAGCGUUCACGUCGCAGCCCCUGUCAGGUUCUGGUGAAUCUGUGAAUUCUGCUGUAUAUCUC [A5U A18U A47G C62U], the self-cleavage was found to be 0.17. As for UAACUGGGGGCCACAGCAGGAGCGUUCACGUCGCUGCCCCUGUCAGAUUCUGGUGAAUCUGCGAAUUCUGCUGUAUAUCAC [A5U A20G A35U U80A], the self-cleavage worked out at 0.64. With UAACUGGGGGCCACAGCUGGGGCGUUCACGUCGCAGCCCCAGUCAGAUUCUGGUGAAUCUGUGAAUUCUGCUGUAUAUCUC [A5U A18U A20G A21G U41A C62U], the self-cleavage came out at 0.08.

The record behind these values is the RNAGym collection of RNA variant scans (doi:10.1093/nar/gkz1192).
